The results in this text go back to the antibiotic and cytotoxicity screens of Wong et al. (2023).

One experiment relates to HSkMC. The experiment can be described thus: cytotoxicity call (relative viability < 0.9). As to conditions: 10 µM.
In a further experiment the test system is HepG2. As to the kind of experiment: cytotoxicity call (relative viability < 0.9). As to conditions: 10 µM.
Another experiment relates to S. aureus RN4220. The experiment can be described thus: growth inhibition call (relative growth <= 0.2). The note with it: 50 µM.

Some of the results follow.

As for `C[C@H](CO)N1C[C@H](C)[C@H](CN(C)C(=O)Nc2cccc3ccccc23)Oc2c(NS(=O)(=O)c3ccccc3)cccc2C1=O`, the cytotoxicity call in the experiment with HSkMC and in the experiment on HepG2 was “inactive” each time. Moreover, the growth inhibition call in the experiment on S. aureus RN4220 is “inactive”.
As to `C[C@@H]1CCCCO[C@H](CN(C)C(=O)Nc2ccc(F)cc2)[C@H](C)CN([C@@H](C)CO)C(=O)c2cc(NC(=O)Nc3cccc4ccccc34)ccc2O1`, the cytotoxicity call in the experiment on HSkMC and in the experiment with HepG2 was “inactive” in each case. In addition, the growth inhibition call in the experiment with S. aureus RN4220 was “inactive”.
On to `COC(=O)C(CCCN1C(=O)c2ccccc2C1=O)(NC(C)=O)c1nn[nH]n1` (centres undefined), for which the cytotoxicity call in the experiment with HSkMC is “inactive”. Also, in the experiment with HepG2, the cytotoxicity call was “active”. Further, the growth inhibition call with S. aureus RN4220 is “inactive”.
Consider `Cc1noc(C)c1S(=O)(=O)N(C)C[C@H]1Oc2ccc(NC(=O)C3CC3)cc2CC(=O)N([C@@H](C)CO)C[C@H]1C`, for which the cytotoxicity call in the experiment with HSkMC and with HepG2 was “inactive” in each case. The growth inhibition call in the experiment with S. aureus RN4220 was “inactive”.
As for `COc1ccc(NC(=O)Nc2ccc3c(c2)C(=O)N([C@H](C)CO)C[C@@H](C)[C@@H](CN(C)Cc2ccc(C(=O)O)cc2)OCCCC[C@@H](C)O3)cc1`, the cytotoxicity call in the experiment on HSkMC and in the experiment with HepG2 was “inactive” each time. Also, the growth inhibition call in the experiment with S. aureus RN4220 is “inactive”.
In the case of `C[C@@H]1CN([C@H](C)CO)C(=O)c2cc(NC(=O)CCC(F)(F)F)ccc2O[C@@H](C)CCCCO[C@H]1CN(C)C(=O)NC1CCCCC1`, the cytotoxicity call with HSkMC and in the experiment with HepG2 was “inactive” throughout. The growth inhibition call in the experiment with S. aureus RN4220 is “inactive”.
With `C[C@@H]1CN([C@H](C)CO)C(=O)c2cccc(NS(C)(=O)=O)c2O[C@H]1CN(C)C(=O)NC1CCCCC1`, the cytotoxicity call with HSkMC and in the experiment on HepG2 was “inactive” in each case. In addition, in the experiment with S. aureus RN4220, the growth inhibition call was “inactive”.
Turning to `COc1ccc(S(=O)(=O)N(C)C[C@H]2Oc3ncc(Br)cc3C(=O)N([C@@H](C)CO)C[C@@H]2C)cc1`, the cytotoxicity call in the experiment on HSkMC and in the experiment with HepG2 was “inactive” throughout. Further, the growth inhibition call in the experiment on S. aureus RN4220 was “inactive”.
Take `C[C@H]1CN([C@@H](C)CO)C(=O)c2cccc(NS(C)(=O)=O)c2O[C@@H]1CN(C)C(=O)Nc1ccc(C(F)(F)F)cc1`: the cytotoxicity call with HSkMC and in the experiment with HepG2 was “inactive” in each case. The growth inhibition call with S. aureus RN4220 was “inactive”.
In the case of `C[C@@H]1CN([C@@H](C)CO)C(=O)Cc2cc(NC(=O)Cn3cnnn3)ccc2O[C@H]1CN(C)C(=O)Nc1ccc(C(F)(F)F)cc1`, the cytotoxicity call with HSkMC and in the experiment on HepG2 was “inactive” in each case. Further, the growth inhibition call with S. aureus RN4220 is “inactive”.
Take `COc1ccc(NC(=O)Nc2ccc3c(c2)C(=O)N([C@H](C)CO)C[C@H](C)[C@H](CN(C)C(=O)Nc2ccc(OC)cc2)OCCCC[C@H](C)O3)cc1`: the cytotoxicity call in the experiment on HSkMC and with HepG2 was “inactive” each time. For the same compound, in the experiment with S. aureus RN4220, the growth inhibition call was “inactive”.
`C[C@@H]1CCCCO[C@H](CN(C)C(=O)Nc2ccccc2)[C@H](C)CN([C@H](C)CO)C(=O)c2cc(NC(=O)Nc3ccccc3)ccc2O1`: the cytotoxicity call in the experiment with HSkMC and in the experiment with HepG2 was “inactive” each time. In the experiment on S. aureus RN4220, the growth inhibition call is “inactive”.
`CC1CCC(C(C)C)C(=O)C1` (centres undefined): the cytotoxicity call with HSkMC and in the experiment on HepG2 was “inactive” each time. Moreover, the growth inhibition call in the experiment on S. aureus RN4220 is “inactive”.
In the case of `NC(=O)[C@@H]1CCOC1`, the cytotoxicity call with HSkMC and with HepG2 was “inactive” each time. Further, the growth inhibition call in the experiment with S. aureus RN4220 is “inactive”.
In the case of `C[C@H](NC(=O)C[C@@H]1C=C[C@H](NC(=O)CN2CCOCC2)[C@@H](CO)O1)c1ccccc1`, the cytotoxicity call in the experiment on HSkMC and in the experiment on HepG2 was “inactive” in each case. The growth inhibition call with S. aureus RN4220 was “inactive”.
As for `COCC(=O)Nc1ccc2c(c1)C(=O)N(C)C[C@@H](OC)[C@H](C)CN(C(=O)Nc1ccccc1F)[C@H](C)CO2`, the cytotoxicity call with HSkMC and in the experiment on HepG2 was “inactive” each time. Moreover, the growth inhibition call in the experiment with S. aureus RN4220 was “inactive”.
For `C[C@@H]1CN([C@H](C)CO)C(=O)Cc2cc(NC(=O)Cn3cnnn3)ccc2O[C@@H]1CN(C)S(=O)(=O)c1ccccc1`, the cytotoxicity call in the experiment with HSkMC and with HepG2 was “inactive” in each case. Further, the growth inhibition call in the experiment with S. aureus RN4220 is “inactive”.
In the case of `C[C@@H]1CCCCO[C@@H](CN(C)Cc2ccc(C(=O)O)cc2)[C@@H](C)CN([C@@H](C)CO)C(=O)c2cc(NC(=O)Nc3ccc4c(c3)OCO4)ccc2O1`, the cytotoxicity call in the experiment on HSkMC and in the experiment with HepG2 was “inactive” each time. Further, the growth inhibition call in the experiment on S. aureus RN4220 was “inactive”.
On to `Cc1nc(-c2ccccc2)oc1CN`, for which the cytotoxicity call with HSkMC and in the experiment on HepG2 was “inactive” each time. The growth inhibition call with S. aureus RN4220 is “inactive”.
On to `C[C@H](CO)N1C[C@H](C)[C@@H](CN(C)S(C)(=O)=O)Oc2ccc(NC(=O)Nc3ccc4c(c3)OCO4)cc2C1=O`, for which the cytotoxicity call with HSkMC and with HepG2 was “inactive” each time. Also, the growth inhibition call in the experiment on S. aureus RN4220 was “inactive”.
For the compound `COc1ccc(S(=O)(=O)Nc2ccc3c(c2)CC(=O)N([C@@H](C)CO)C[C@@H](C)[C@@H](CN(C)Cc2ccc(C(=O)O)cc2)O3)cc1`, the cytotoxicity call in the experiment with HSkMC and in the experiment with HepG2 was “inactive” throughout. Also, the growth inhibition call in the experiment on S. aureus RN4220 is “inactive”.
As for `C=CC1=C(C(=O)O)N2C(=O)C(NC(=O)C(=NOCC(=O)O)c3csc(N)n3)C2SC1` (centres undefined), in the experiment on HSkMC (human skeletal muscle cells), the cytotoxicity call is “inactive”. Also, the cytotoxicity call in the experiment on HepG2 is “active”. Further, in the experiment on S. aureus RN4220, the growth inhibition call is “inactive”.
On to `Cc1ccc(S(=O)(=O)N(C)C[C@H]2Oc3ccc(NC(=O)CCCN(C)C)cc3CC(=O)N([C@@H](C)CO)C[C@H]2C)cc1`, for which the cytotoxicity call in the experiment with HSkMC and with HepG2 was “inactive” in each case. Further, in the experiment with S. aureus RN4220, the growth inhibition call was “inactive”.
`O=C(Nc1ccccc1)Nc1ccc(Nc2ccccc2)cc1`: in the experiment with HSkMC, the cytotoxicity call was “inactive”. Besides, the cytotoxicity call in the experiment on HepG2 was “active”. Moreover, the growth inhibition call in the experiment on S. aureus RN4220 is “inactive”.
Take `O=C(C[C@H]1CC[C@H]2[C@@H](COC[C@H](O)CN2S(=O)(=O)c2ccc(Cl)cc2)O1)NCCN1CCCC1`: the cytotoxicity call in the experiment with HSkMC and in the experiment on HepG2 was “inactive” throughout. In the experiment on S. aureus RN4220, the growth inhibition call was “inactive”.
For `C=CCC[C@@H](Cc1ccc(F)cc1)C(=O)OC[C@@H](NC(=O)[C@@H](CC=C)CC(=O)N(CCO)Cc1ccccc1)C(C)(C)C`, the cytotoxicity call with HSkMC and with HepG2 was “inactive” throughout. Also, in the experiment on S. aureus RN4220, the growth inhibition call is “inactive”.
Regarding `Nc1ccc(/C=C/c2ccccc2)cc1`, the cytotoxicity call with HSkMC and in the experiment with HepG2 was “inactive” in each case. Moreover, in the experiment with S. aureus RN4220, the growth inhibition call was “inactive”.
On to `Cc1cc(=O)n2c3ccccc3n(C[C@@H](O)CN3CCN(CCO)CC3)c2c1C#N`, for which the cytotoxicity call in the experiment with HSkMC and with HepG2 was “inactive” throughout. Moreover, the growth inhibition call in the experiment on S. aureus RN4220 is “inactive”.
